For 30 compounds, activity change, negative = inhibition results are on record in PubChem BioAssay AID1745853 (National Center for Advancing Translational Sciences (NCATS), 2022).

The other results are listed elsewhere or left out. These are further read-outs of the screen, such as a control signal, another cell line or another target. No call is given for them.

Common to all, as to assay: Primary Screen for Target Class Profiling of Small Molecule Inhibitors of Methyltransferases
The target of experiment [1] is Glycine N-methyltransferase (Homo sapiens) (UniProt Q14749). The conditions noted are these: purified enzyme, MTase-Glo SAH luminescence; measured here: GNMT inhibition; at 40 µM; stronger effect = lower value. A digest of the protocol: (§1)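 Each enzyme was assayed with SAM and its substrate. SAH formation detected by MTase-Glo luminescence; single-point 40 uM screen[…].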

Experiment [2] addresses Guanidinoacetate N-methyltransferase (Homo sapiens) (UniProt Q14353). The conditions noted are these: purified enzyme, MTase-Glo SAH luminescence; measured here: GAMT inhibition; at 40 µM; stronger effect = lower value. A digest of the protocol:
as §1

Experiment [3] addresses Histamine N-methyltransferase (Homo sapiens) (UniProt P50135). The conditions noted are these: purified enzyme, MTase-Glo SAH luminescence; measured here: HNMT inhibition; at 40 µM; stronger effect = lower value. A digest of the protocol: as §1
In experiment [4] the target is Nicotinamide N-methyltransferase (Homo sapiens) (UniProt P40261). The conditions noted are these: purified enzyme, MTase-Glo SAH luminescence; measured here: NNMT inhibition; at 40 µM; stronger effect = lower value. Summed up:
as §1

For experiment [5], the target named is Phenylethanolamine N-methyltransferase (Homo sapiens) (UniProt P11086). The settings on record: purified enzyme, MTase-Glo SAH luminescence; measured here: PNMT inhibition; at 40 µM; stronger effect = lower value. A digest of the protocol:
as §1
On the % scale 0 is the no-effect control and ±100 the full control effect.

`COc1ccc(Cl)cc1NS(=O)(=O)c1ccc2[nH]c(=O)[nH]c2c1`: the activity change, negative = inhibition in experiment [1] was 3.83%; in experiment [2], 0.975%; in experiment [3], 3.56%; in experiment [4], -1.76%; in experiment [5], -3.82%.
For `COc1cc(Cl)c(C)cc1NS(=O)(=O)c1ccc2c(c1)n(C)c(=O)n2C` the same measures were 9.3%, 0%, 5.35%, -7.49% and 2.33%.
For `CCCSCCCNC(=O)c1cc2n(n1)CC(C)(C(=O)NCc1ccc(F)cc1)N(C)C2=O` (stereo not drawn), in that order: 1.85%, 0%, -3.49%, 6.49% and 3.23%.
For `CN(C)C[C@@H]1CN(C)C[C@H]1NC(=O)NCc1ccc(OC(F)(F)F)cc1` the same measures were -1.86%, -4.84%, -2.29%, -13.1% and -2.26%.
Consider `COc1ccccc1-c1cc(C(=O)N2CCN(c3ncccn3)CC2)nn2cccc12`, for which the activity change, negative = inhibition in experiment [1] is -2.21%; in experiment [2] it was -5.06%; in experiment [3], 0.238%; in experiment [4] it was -9.32%; in experiment [5] it was -7.47%.
With `O=[N+]([O-])c1ccc(Nc2nc(N3CCOCC3)nc(N3CCOCC3)n2)cc1`, the results for the activity change, negative = inhibition in experiment [2], in experiment [4] and in experiment [5] were -1.52%, -12.1% and 3.83%, respectively.
Regarding `CC1(C)O[C@H]2CC(=O)OC[C@@]23C1=C(O)C(=O)[C@]1(C)C3CC[C@@]2(C)[C@H](c3ccoc3)OC(=O)[C@H]3O[C@]321` (stereo partly drawn), the activity change, negative = inhibition in experiment [1] is 0%; in experiment [2], -4.9%; in experiment [3], 0.588%; in experiment [4] it was -16%; in experiment [5], 0.298%.
For `CS(=O)(=O)N(Cc1cccnc1)C1CN(C(=O)C2CCCCC2)C1` the same measures were -5.59%, -10.5%, -3.26%, -8.78% and -1.63%.
For `Cc1ccccc1CN1C(=O)c2cc3sccc3n2CC1(C)C(=O)NC1CCCCCC1` (stereo not drawn), in that order: 0.497%, 6.22%, 3.52%, 6.07% and -0.313%.
On to `O=C(c1nc2ncccn2n1)N1CCCn2cc(-c3ccccc3)nc21`, for which the activity change, negative = inhibition in experiment [1] was -4.72%; in experiment [2], -8.4%; in experiment [3], -12.1%; in experiment [4], -11.2%; in experiment [5], -10.2%.
For `CCCCOc1cc(C(=O)OCCN(CC)CC)ccc1N` the same measures were 6.19%, 5.71%, 2.17%, -8.37% and 2.67%.
For `Cc1cnc(C(=O)N2CCC3(CC2)C(=O)N(c2cccc(F)c2)C3c2ccccc2)cn1` (stereo not drawn), in that order: -3.37%, 0.012%, -1.64%, -8.08% and -1.2%.
For `Cc1nc2n(c(=O)c1CCN1CCC(c3noc4cc(F)ccc34)CC1)CCC[C@H]2O` the same measures were 6.8%, 2.54%, 5.24%, -13.9% and 0.385%.
On to `COc1ccccc1CNC(=O)CCc1nnc2n(CCc3ccccc3)c(=O)c3ccccc3n12`, for which the activity change, negative = inhibition is -6.06% in experiment [1]; 0.917% in experiment [2]; 3.98% in experiment [3]; 6.87% in experiment [4]; -5.15% in experiment [5].
For `C/C=C/C1=CC2=CC(=O)C(C)(O)C(OC(=O)c3c(C)cc(O)cc3O)C2CO1` (stereo not drawn) the same measures were 0%, 1.38%, 4.44%, -7.97% and 2.31%.
With `COC(=O)c1cc2n(n1)CC(C)(C(=O)NC1CCCCCC1)N(c1cccc(F)c1)C2=O` (stereo not drawn), the activity change, negative = inhibition in experiment [1] was 1.76%; in experiment [2], 0%; in experiment [3] it was 3.66%; in experiment [4] it was 2.56%; in experiment [5] it was 0.408%.
For `COC(=O)[C@H](NC(=O)[C@@H]1[C@@H](NC(=O)Nc2ccc(F)cc2F)CCN1C(=O)CSC)C(C)C` the same measures were -5.85%, -7.41%, -5.4%, -12.8% and -7.61%.
For `CC(C)Cn1c(=O)c2ccc(C(=O)NC3CCCCC3)cc2n2c(=O)n(C)nc12`, in that order: 5.7%, 0.265%, 2.73%, 2.73% and 2.46%.
Consider `Cn1ccc(C(=O)NCc2nnc3n2C(C(=O)N2CCN(c4ncccn4)CC2)CC3)n1` (stereo not drawn), for which the activity change, negative = inhibition in experiment [1] is -6.17%; in experiment [2] it was -5.08%; in experiment [3], -0.117%; in experiment [4], -6.71%; in experiment [5], 5.29%.
For `COc1ccccc1CCNC(=O)CCCn1ccc2cc(S(=O)(=O)N3CCCC3)ccc21` the same measures were 5.04%, 7.18%, 0.482%, 2.65% and 1.54%.
For `CCC(C)c1ccc(NC(=O)Cn2cnc3c2c(=O)n(C)c(=O)n3C)cc1` (stereo not drawn) the same measures were -3.35%, -0.955%, 8.8%, -30.8% and 0.507%.
For `O[C@@](Cc1ncc(CC2(C(F)(F)F)CC2)[nH]1)(c1ccc(-n2cccn2)cc1)C(F)(F)F`, in that order: -12.1%, -14.4%, 12.7%, -28.3% and -4.35%.
In the case of `CC1CCCC(NC(=O)C2(C)Cn3c(nc4ccccc43)C(=O)N2Cc2ccccc2F)C1C` (stereo not drawn), the activity change, negative = inhibition in experiment [1] is 3.21%; in experiment [2] it was 0.875%; in experiment [3], 2.24%; in experiment [4], 1.8%; in experiment [5] it was 1.34%.
For `CC(C)[C@@H]1C(=O)N(S(C)(=O)=O)[C@@H]2CCN(C(=O)/C=C/CN3CCCCC3)[C@H]21`, in that order: 8.79%, 4.72%, 2.67%, -8.8% and 3.04%.
For `Cc1ccc(NC(=O)c2cc3n(n2)CC(C)(C(=O)NC2CCCCCC2)N(C)C3=O)cc1Cl` (stereo not drawn) the same measures were -1.75%, 4.01%, -0.117%, 3.47% and 0.917%.
For `COC(=O)C1=CN(CC(=O)N2CCN(c3ccc(F)cc3)CC2)S(=O)(=O)N=C1C`, in that order: 0.045%, -0.502%, 2.55%, -1.88% and 10.9%.
As for `CC(=O)O[C@H]1[C@@]2(O)C[C@H](C)[C@H](OC(=O)c3ccccc3)[C@@H]2[C@@H](OC(=O)CO)[C@]2(OC(C)=O)C[C@H]3C(=O)C(C)(C)C[C@@H]3[C@@]1(C)[C@H]2OC(C)=O`, the activity change, negative = inhibition in experiment [1] was 4.54%; in experiment [2], -6.53%; in experiment [3], 6.14%; in experiment [4], -15%; in experiment [5], -11.5%.
For `O=C(Cn1c(=O)oc2cc(S(=O)(=O)N3CCCC3)ccc21)Nc1ccc(F)cc1F`, in that order: 2.27%, 0%, 3.56%, -0.186% and -9.49%.
For `CCCn1c(=O)c2cc(Cl)ccc2n2c(SCC(=O)NC(C)CC)nnc12` (stereo not drawn), in that order: -7.95%, -13.9%, 5.51%, -8.4% and -7.64%.
`Cc1cc2nc3n(c(=O)c2n1CC(=O)NC1CCc2ccccc21)CCCCC3` (stereo not drawn): the activity change, negative = inhibition in experiment [1] was -7.09%; in experiment [2], -4.52%; in experiment [3], -0.765%; in experiment [4], -11.5%; in experiment [5], -19%.
